This note sets out measurements from PMC3846719.

Amino acid sequences for entries named in this document (tags omitted).
UniProt Q03308: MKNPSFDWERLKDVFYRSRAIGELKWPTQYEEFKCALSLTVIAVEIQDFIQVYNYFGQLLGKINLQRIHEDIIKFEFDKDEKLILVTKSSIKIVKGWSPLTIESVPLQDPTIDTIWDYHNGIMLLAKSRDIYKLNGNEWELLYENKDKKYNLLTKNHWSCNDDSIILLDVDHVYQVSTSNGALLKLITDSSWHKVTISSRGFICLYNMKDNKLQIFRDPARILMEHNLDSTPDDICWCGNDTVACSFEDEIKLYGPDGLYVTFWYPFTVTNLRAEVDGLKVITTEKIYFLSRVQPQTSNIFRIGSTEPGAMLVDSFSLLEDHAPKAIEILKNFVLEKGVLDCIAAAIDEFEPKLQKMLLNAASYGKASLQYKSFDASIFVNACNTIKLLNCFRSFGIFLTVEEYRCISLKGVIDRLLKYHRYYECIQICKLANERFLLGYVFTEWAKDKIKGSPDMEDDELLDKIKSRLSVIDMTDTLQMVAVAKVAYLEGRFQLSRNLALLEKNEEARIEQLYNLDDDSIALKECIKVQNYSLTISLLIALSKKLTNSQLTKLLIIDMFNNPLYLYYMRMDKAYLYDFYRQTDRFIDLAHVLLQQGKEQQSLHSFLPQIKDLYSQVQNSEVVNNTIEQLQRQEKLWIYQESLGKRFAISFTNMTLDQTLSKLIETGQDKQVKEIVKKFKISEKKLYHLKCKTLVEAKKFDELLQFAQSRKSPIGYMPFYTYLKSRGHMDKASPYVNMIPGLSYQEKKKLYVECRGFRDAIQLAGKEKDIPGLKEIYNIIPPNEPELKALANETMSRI
UniProt Q07468: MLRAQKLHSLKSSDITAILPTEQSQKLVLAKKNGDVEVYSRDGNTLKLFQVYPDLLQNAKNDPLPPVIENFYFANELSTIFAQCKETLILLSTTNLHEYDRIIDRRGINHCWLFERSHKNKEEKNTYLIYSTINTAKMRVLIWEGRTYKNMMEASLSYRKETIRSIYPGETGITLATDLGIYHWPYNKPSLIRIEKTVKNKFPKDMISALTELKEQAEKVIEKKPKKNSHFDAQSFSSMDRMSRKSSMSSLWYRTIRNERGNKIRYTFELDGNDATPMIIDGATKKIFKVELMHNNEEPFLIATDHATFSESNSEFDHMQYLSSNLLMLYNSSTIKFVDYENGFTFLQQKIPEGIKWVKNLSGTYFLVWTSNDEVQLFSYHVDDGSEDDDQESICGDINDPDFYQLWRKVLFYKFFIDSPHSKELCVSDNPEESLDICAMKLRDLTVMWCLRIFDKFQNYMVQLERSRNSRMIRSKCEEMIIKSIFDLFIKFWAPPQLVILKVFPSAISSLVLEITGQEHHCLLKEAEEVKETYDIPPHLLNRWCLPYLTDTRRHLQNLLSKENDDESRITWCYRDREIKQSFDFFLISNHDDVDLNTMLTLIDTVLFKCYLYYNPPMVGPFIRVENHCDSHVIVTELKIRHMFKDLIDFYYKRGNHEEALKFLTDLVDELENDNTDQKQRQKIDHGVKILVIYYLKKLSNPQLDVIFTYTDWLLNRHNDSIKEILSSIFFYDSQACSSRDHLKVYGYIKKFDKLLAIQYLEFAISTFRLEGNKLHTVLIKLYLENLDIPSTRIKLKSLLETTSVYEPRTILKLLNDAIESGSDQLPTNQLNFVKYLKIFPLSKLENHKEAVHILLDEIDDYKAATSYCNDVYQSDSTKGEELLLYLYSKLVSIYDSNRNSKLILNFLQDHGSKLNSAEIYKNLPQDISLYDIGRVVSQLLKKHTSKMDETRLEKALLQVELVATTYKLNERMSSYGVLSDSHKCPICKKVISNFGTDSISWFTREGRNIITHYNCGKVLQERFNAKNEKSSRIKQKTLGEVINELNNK

No constants are given. Whether binding was seen depends on the method and setting. Binding seen in cells or lysates may run through a third protein. Some results given as binding are weak or reduced against the parent protein; the word gives no strength.

Test [1] addresses Vps16 (S. cerevisiae) (UniProt Q03308). Briefly: pull-down; three or four subunits co-translated in LTE (20 nM plasmid mixture in all), one of them GFP-tagged; subcomplex isolated on the anti-GFP matrix; SDS-PAGE, fluorescence scan.
For test [2] the target is unchanged. Nature of the test: pull-down; one EGFP-tagged bait subunit and one untagged prey subunit co-translated (10 nM plasmids, 100 µl LTE, 27 °C, 2.5 h) with BODIPY-Lys-tRNA; GFP-Cap (anti-GFP) beads 15 min; washed with 50 mM NaHPO4 pH 8, 300 mM NaCl, 0.1% Triton; SDS-PAGE, fluorescence scan.
Test [3] addresses Vps39 (S. cerevisiae) (UniProt Q07468). The test is described as above.
The target in test [4] is T1, Vps8 (S. cerevisiae), P39702.
T1 chain: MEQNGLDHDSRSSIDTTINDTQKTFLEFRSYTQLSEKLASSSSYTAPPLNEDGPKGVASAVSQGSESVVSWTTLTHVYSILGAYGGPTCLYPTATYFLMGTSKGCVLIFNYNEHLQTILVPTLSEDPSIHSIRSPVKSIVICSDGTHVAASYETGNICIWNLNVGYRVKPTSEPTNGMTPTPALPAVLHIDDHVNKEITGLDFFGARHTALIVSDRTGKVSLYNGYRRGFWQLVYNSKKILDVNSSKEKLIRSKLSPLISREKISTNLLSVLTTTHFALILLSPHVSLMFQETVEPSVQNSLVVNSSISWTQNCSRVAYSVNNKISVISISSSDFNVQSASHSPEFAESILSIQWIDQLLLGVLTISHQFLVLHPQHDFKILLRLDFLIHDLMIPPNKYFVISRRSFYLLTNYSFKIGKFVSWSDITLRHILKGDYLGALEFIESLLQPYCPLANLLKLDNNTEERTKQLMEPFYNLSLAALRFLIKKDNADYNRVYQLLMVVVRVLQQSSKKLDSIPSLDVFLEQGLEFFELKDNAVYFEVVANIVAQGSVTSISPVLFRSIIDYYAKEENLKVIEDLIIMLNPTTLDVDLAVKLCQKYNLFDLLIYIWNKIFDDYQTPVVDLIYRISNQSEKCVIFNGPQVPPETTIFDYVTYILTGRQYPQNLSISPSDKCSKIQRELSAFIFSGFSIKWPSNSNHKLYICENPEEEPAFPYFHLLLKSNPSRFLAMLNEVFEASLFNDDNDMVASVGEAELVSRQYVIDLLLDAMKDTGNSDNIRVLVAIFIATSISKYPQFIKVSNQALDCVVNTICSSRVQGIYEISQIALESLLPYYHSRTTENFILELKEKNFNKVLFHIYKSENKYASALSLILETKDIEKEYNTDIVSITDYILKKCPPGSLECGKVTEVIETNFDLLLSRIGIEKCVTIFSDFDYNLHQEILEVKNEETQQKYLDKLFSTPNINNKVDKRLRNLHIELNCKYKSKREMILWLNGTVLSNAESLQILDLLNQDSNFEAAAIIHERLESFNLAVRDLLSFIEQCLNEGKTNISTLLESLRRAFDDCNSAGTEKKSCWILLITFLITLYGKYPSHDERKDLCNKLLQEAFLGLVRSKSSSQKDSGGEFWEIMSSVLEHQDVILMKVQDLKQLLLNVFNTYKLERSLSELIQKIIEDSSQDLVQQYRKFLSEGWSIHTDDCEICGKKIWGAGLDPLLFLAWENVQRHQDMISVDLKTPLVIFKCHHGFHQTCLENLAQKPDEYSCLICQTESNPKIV
Described as above. Conditions: remark: other sources report otherwise.

The target of test [5] is T2, Vps11 (S. cerevisiae), P12868.
T2 chain: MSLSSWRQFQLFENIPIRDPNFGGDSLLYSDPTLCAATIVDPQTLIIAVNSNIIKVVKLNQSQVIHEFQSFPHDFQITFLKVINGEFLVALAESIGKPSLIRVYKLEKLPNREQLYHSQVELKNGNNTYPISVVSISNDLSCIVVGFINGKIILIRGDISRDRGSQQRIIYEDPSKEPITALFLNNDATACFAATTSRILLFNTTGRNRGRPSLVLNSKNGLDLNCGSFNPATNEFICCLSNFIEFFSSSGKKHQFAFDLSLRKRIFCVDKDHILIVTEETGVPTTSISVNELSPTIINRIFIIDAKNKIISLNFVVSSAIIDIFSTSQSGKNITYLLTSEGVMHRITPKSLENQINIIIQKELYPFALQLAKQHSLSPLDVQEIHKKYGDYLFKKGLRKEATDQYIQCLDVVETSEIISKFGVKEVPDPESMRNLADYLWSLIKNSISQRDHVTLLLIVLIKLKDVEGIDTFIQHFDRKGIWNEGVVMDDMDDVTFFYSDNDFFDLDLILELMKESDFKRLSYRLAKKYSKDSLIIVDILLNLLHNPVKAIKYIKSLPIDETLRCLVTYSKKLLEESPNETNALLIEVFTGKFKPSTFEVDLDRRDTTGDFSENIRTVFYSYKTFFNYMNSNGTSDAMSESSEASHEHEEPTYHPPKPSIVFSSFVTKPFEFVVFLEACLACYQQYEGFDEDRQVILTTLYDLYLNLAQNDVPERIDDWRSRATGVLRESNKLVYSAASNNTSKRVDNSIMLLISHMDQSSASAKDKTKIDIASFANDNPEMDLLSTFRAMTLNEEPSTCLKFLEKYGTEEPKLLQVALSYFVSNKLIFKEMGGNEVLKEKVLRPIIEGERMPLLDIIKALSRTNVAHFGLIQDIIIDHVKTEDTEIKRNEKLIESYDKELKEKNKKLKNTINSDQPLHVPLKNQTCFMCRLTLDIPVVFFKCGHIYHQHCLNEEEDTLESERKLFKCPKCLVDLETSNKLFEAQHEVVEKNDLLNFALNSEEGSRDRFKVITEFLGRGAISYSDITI
The description is as above. Conditions: remark: other sources report otherwise.

Test [6] has as its target T3, Vps3 (S. cerevisiae), P23643.
T3 chain: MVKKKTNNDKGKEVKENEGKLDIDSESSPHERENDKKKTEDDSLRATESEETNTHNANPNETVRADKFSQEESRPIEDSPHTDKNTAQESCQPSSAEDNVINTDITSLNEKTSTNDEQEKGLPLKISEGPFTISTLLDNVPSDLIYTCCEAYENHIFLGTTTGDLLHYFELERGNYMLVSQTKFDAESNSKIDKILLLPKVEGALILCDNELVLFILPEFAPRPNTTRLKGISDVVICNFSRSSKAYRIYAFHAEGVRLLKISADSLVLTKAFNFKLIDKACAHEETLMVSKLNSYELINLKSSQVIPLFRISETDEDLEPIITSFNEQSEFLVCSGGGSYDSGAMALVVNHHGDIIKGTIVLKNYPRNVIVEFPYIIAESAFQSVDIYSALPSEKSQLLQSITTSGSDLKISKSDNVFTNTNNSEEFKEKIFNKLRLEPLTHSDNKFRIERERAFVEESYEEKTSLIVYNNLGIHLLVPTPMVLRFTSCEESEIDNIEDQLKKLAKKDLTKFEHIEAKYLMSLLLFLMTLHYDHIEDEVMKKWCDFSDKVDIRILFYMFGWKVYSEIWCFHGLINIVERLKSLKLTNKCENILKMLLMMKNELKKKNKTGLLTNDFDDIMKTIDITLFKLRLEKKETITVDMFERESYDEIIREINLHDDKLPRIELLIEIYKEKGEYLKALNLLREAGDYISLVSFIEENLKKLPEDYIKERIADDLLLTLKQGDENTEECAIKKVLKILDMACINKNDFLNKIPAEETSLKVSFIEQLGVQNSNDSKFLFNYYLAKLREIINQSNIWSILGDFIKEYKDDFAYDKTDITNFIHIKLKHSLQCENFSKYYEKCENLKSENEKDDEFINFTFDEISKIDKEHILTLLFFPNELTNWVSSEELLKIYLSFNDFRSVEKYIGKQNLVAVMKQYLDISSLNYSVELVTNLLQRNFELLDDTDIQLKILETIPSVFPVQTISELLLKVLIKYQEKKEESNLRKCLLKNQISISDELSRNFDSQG
The test is described as above. Conditions: remark: other sources report otherwise.

With Vps33 (from UniProt P20795 1-691), the binding entry is “binds” in test [1], “binds” in test [2] and “no binding” in test [3].

B1: Vps33, P20795 1-691 (protein)
chain: MNRFWNTKKFSLTNADGLCATLNEISQNDEVLVVQPSVLPVLNSLLTFQDLTQSTPVRKITLLDDQLSDDLPSALGSVPQMDLIFLIDVRTSLRLPPQLLDAAQKHNLSSLHIIYCRWKPSFQNTLEDTEQWQKDGFDLNSKKTHFPNVIESQLKELSNEYTLYPWDLLPFPQIDENVLLTHSLYNMENVNMYYPNLRSLQSATESILVDDMVNSLQSLIFETNSIITNVVSIGNLSKRCSHLLKKRIDEHQTENDLFIKGTLYGERTNCGLEMDLIILERNTDPITPLLTQLTYAGILDDLYEFNSGIKIKEKDMNFNYKEDKIWNDLKFLNFGSIGPQLNKLAKELQTQYDTRHKAESVHEIKEFVDSLGSLQQRQAFLKNHTTLSSDVLKVVETEEYGSFNKILELELEILMGNTLNNDIEDIILELQYQYEVDQKKILRLICLLSLCKNSLREKDYEYLRTFMIDSWGIEKCFQLESLAELGFFTSKTGKTDLHITTSKSTRLQKEYRYISQWFNTVPIEDEHAADKITNENDDFSEATFAYSGVVPLTMRLVQMLYDRSILFHNYSSQQPFILSREPRVSQTEDLIEQLYGDSHAIEESIWVPGTITKKINASIKSNNRRSIDGSNGTFHAAEDIALVVFLGGVTMGEIAIMKHLQKILGKKGINKRFIIIADGLINGTRIMNSIS
modifications: here or on the partner: BODIPY-labelled lysines (BODIPY-Lys-tRNA in the translation); BODIPY-labelled lysines (BODIPY-Lys-tRNA in the translation)
For the molecule B1, the binding entry in test [4], in test [5] and in test [6] was “no binding” throughout.
